Measurements as given in patent US20240188561A1, “ADDITIVES FOR ENHANCING THE PESTICIDAL EFFECTIVENESS OF PESTICIDAL MICROORGANISMS” (priority 2021, published 2024).

How the values were obtained:
[1] = system: Pythium; test: Cucumber seed pots in Pythium inoculated soil, seedling emergence and vigor; conditions: 28 days, in words
[2] = system: Pseudomonas fluorescens; test: Additive compatibility with microbial growth (growth slope by OD 620 nm); format: cell-based; conditions: additive 0.01-5 %, exposed 4 hours at 16° C., then tryptic soy broth 30° C., slope compared to 0% sample
[3] = system: Bacillus subtilis; test: as above; format: cell-based; conditions: additive 0.01-5 %, exposed 4 hours at 16° C., then tryptic soy broth 30° C., slope compared to 0% sample
[4] = system: Bacillus firmus; test: as above; format: cell-based; conditions: additive 0.01-5 %, exposed 4 hours at 16° C., then tryptic soy broth 30° C., slope compared to 0% sample
[5] = system: Bacillus amyloliquefaciens; test: as above; format: cell-based; conditions: additive 0.01-5 %, exposed 4 hours at 16° C., then tryptic soy broth 30° C., slope compared to 0% sample
[6] = system: Gray Mold (Botrytis cinerea); test: Spray trial on flowering strawberry plants, Gray Mold, marketable berries after storage; conditions: in words
Description: (§1) Five solutions were prepared as described in Table 7a. These solutions were sprayed on flowering strawberry plants showing no signs of Gray Mold (Botrytis cinerea). The bio-fungicide in the trial was Serifel® Biofungicide (Bacillus amyloliquefaciens sold by BASF Corporation). Three of the solutions included POE 10 Soybean Oil. Elevate® Fungicide (fenhexamid sold by BASF Corporation) was sprayed as the synthetic benchmark comparison.
Six applications were made at 7-day intervals to the same strawberry plants. After two weeks the plants were harvested of all berries. The berries were stored at room temperature for 3 days and then evaluated for Gray Mold. The same stored berries were evaluated again on day 5 of storage. At the end of each following week, berries were harvested, and the number of marketable berries evaluated at 3 days and 5 days after harvest.
as §1, with “8a.” for “7a.”, “PEG 400 diolate.” for “POE 10 Soybean Oil.”

Compound | Control of Pythium (higher emergence) when additive was added to BlightBan A506 Biofungicide treatment solutions [1] | Control of Gray Mold (Higher %-Marketable Berries) when additive was added to Serifel Biofungicide spray solutions [6] | also measured
CCCCCCCC/C=C\CCCCCCCC(=O)OC [ii-4, Oleic acid methyl ester] | improved control |  | 
C6-C10 fatty acid methyl ester [ii-1] | improved control |  | Influence of additive on microbial growth slope (compatibility), Pseudomonas fluorescens [2]: N; Influence of additive on microbial growth slope (compatibility), Bacillus subtilis [3]: N; Influence of additive on microbial growth slope (compatibility), Bacillus firmus [4]: N; Influence of additive on microbial growth slope (compatibility), Bacillus amyloliquefaciens [5]: N
PEG 400 dioleate [v-3] |  | improved control | Control of Pythium (higher emergence) when additive was added to Subtilex NG Biofungicide treatment solutions [1]: improved control
Soya fatty acid methyl ester [ii-3] | improved control |  | 
Soybean Oil POE 10 [vi-1] |  | improved control | 
